Data: the RNAGym collection of RNA variant scans (doi:10.1093/nar/gkz1192)
Read counts are not given, so values of variants with three or more changes are uncertain.

B1: CPEB3 Ribozyme (parent)
chain: UAACAGGGGGCCACAGCAGAAGCGUUCACGUCGCAGCCCCUGUCAGAUUCUGGUGAAUCUGCGAAUUCUGCUGUAUAUCUC

Variants of: B1
Experiment: self-cleavage, relative activity (ratio to wild type); higher = more cleavage; in vitro, sequencing
Procedure, shortened: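 CPEB3 self-cleaving ribozyme mutant libraries were made by rounds of error-prone PCR, barcoded, and transcribed in vitro with T7 RNA polymerase for 5 hours at 37°C. Cleavage occurred during transcription and a 15 min DNase I step before EDTA stop. RNAs were reverse transcribed with template switching and Illumina-sequenced, with DNA sequencing mapping barcodes to variants. Relative activity is the variant's cleaved/total read fraction divided by wild type's (minimum 5 reads), averaged across three batches.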

Row | Variant | self-cleavage
1 | A18U A21G U26C C29A U41C U49C A75G | 0.14
2 | A18U A21G U31C A35G A75G U78C | 0.2
3 | A18U A21G U41C G61A | 0.14
4 | A18U A21G U48A A56G | 0.07
5 | A18U A21G U69A | 0.66
6 | A18U A21G U72C U80C | 0.35
7 | A18U A21U A28G G53A | 0.19
8 | A18U A21U U31C | 0.17
9 | A18U A21U U43A A65U U67C U72A | 0.01
10 | A18U A28C A56G U58C | 0.14
11 | A18U A28G A35G A64G A65G U80C | 0.17
12 | A18U A28G A35G U41A U60C | 0.11
13 | A18U A28G A35U U48C U51C U66C | 0.1
14 | A18U A28G A45U A64G | 0.07
15 | A18U A28G A64U | 0.1
16 | A18U A28G A65G C71U | 0.12
17 | A18U A28G C37G U41C | 0.12
18 | A18U A28G C37U U41C U51A A56G | 0.15
19 | A18U A28G G61C U69C | 0.13
20 | A18U A28G U31C U49C | 0.1
21 | A18U A28G U41C A45U U69C A77G | 0.07

Row | Variant | self-cleavage
22 | A18U A28G U43A U66A U80A | 0.07
23 | A18U A28G U69C | 0.16
24 | A18U A28G U76A | 0.16
25 | A18U A28U A56G U60G C62U U67C | 0.1
26 | A18U A28U U54C | 0.24
27 | A18U A28U U60C U67C | 0.21
28 | A18U A28U U80C | 0.5
29 | A18U A35G A45G | 0.67
30 | A18U A35G A45U | 0.11
31 | A18U A35G A56G | 0.23
32 | A18U A35G A56G U72C A77G | 0.47
33 | A18U A35G C37A G61A A77U | 0.1
34 | A18U A35G C39G U51A U72C U80A | 0.29
35 | A18U A35G C39U U51A C59A | 0.22
36 | A18U A35G G52A | 0.59
37 | A18U A35G U43A G46C U54G A64U U72C | 0.19
38 | A18U A35G U48C U74C | 0.56
39 | A18U A35G U54C A56G U69C | 0.37
40 | A18U A35G U54G | 0.78
41 | A18U A35G U58C U72C | 0.47
42 | A18U A35G U69C U76G | 1.1

Row | Variant | self-cleavage
43 | A18U A35G U74G | 1.03
44 | A18U A35U A64G A65G | 0.19
45 | A18U A35U G36A U72A | 0.14
46 | A18U A35U U41C | 0.16
47 | A18U A35U U48C | 0.06
48 | A18U A45C A65G U67C | 0.11
49 | A18U A45G A56U | 0.3
50 | A18U A45G A56U C59A | 0.1
51 | A18U A45G A64G U80A | 0.22
52 | A18U A45G A64U U74C | 0.1
53 | A18U A45G A65G U76C | 0.43
54 | A18U A45G U49C | 0.12
55 | A18U A45U U49C U58A U67C | 0.06
56 | A18U A45U U51A G53A A77G | 0.05
57 | A18U A45U U51C A64G | 0.04
58 | A18U A47G A57G C71U | 0.24
59 | A18U A47G A77G | 0.45
60 | A18U A47G G52C C62U A75U | 0.25
61 | A18U A47G U49A A57G | 0.2
62 | A18U A47U U54A U60C | 0.08
63 | A18U A47U U60A G61C A65G | 0.07

Row | Variant | self-cleavage
64 | A18U A56C U60A | 0.14
65 | A18U A56G A57G A65G U78C C81A | 0.09
66 | A18U A56G A57U | 0.33
67 | A18U A56G A64G | 0.21
68 | A18U A56G A75G | 0.29
69 | A18U A56G U66C | 0.16
70 | A18U A56G U80C | 0.32
71 | A18U A56U A57G | 0.18
72 | A18U A57C U80C | 0.18
73 | A18U A57G U60C U67C C68A U72C | 0.16
74 | A18U A57G U60C U80C | 0.18
75 | A18U A64G C81U | 0.26
76 | A18U A64G U78A | 0.24
77 | A18U A64G U80A | 0.15
78 | A18U A64U A75G | 0.2
79 | A18U A64U U78C | 0.22
80 | A18U A65G U74G | 0.41
81 | A18U A65U C71G A75C | 0.12
82 | A18U A77G U78C | 0.26
83 | A18U A77U U78C | 0.37
84 | A18U C23A U25G | 0.35
